According to PubChem BioAssay AID1347071 (National Center for Advancing Translational Sciences (NCATS), 2019):
Screen size: about 410,000 compounds; about 260 (0.063%) were called active. This list was built around the results that the source calls inconclusive (neither active nor inactive); the mix of calls is not that of the screen. Calls come from the whole dose curve; as a rule, active = well fitted activation curve with a large enough effect; inconclusive = small, poorly fitted or top-dose-only effect; inactive = no such curve, though single readings can be large or run the other way. No potency is given beside an inconclusive call; the fits are too rough.

Test: qHTS for compounds that reverse cellular toxicity of Amyloid beta (A-beta) peptide in yeast: Primary Screen; note: nearly all actives have a fitted effect of over 55% in size
Conditions: yeast expressing A-beta42, growth rescue, OD600, 48 h; growth rescue: at 46.1 µM (top of the series), 0% DMSO, 100% iron-clioquinol control
Method in brief: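 Yeast A-beta toxicity model in growth medium with pinned compounds, 48 h at 30 C; growth read as absorbance at 600 nm. Normalized to FeCl3/clioquinol equimolar mix (positive) and DMSO (negative).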
Potency is the fitted concentration of half-maximal effect; tags give direction and shape of the fitted curve.

SMILES	Potency	growth rescue
CC12CCC(=O)N1C(C(=O)Nc1nnc(SCc3ccccc3)s1)CS2 (stereo not given)	inconclusive [activator, partial curve, poor fit]	–
CC(Oc1ccccc1)C(=O)NNC(=O)c1ccccn1 (stereo not given)	inconclusive [activator, single point]	–
O=C(NCc1ccco1)C1CCCN1S(=O)(=O)c1ccc2ccccc2c1 (stereo not given)	inconclusive [activator, full curve]	–
O=C(Cc1ccc(Br)c2ccccc12)N/N=C/c1ccccn1	inconclusive [activator, single point]	–
CCN(CC)c1ccc(NC(=S)NC(=O)C2CCC2)cc1	inconclusive [activator, partial curve, poor fit]	–
O=C(Nc1ccccc1)Nc1ccc(Cl)nc1Cl	inconclusive [activator, single point]	–
Cn1ncc(Cl)c1C(=O)N/N=C/c1ccccn1	inconclusive [activator, single point]	–
O=C(CN1C(=O)c2ccccc2C1=O)N1CCN(C2c3ccccc3-c3ccccc32)CC1	inconclusive [activator, partial curve]	–
CCc1ccc(NC(=O)CS(=O)CC(=O)Nc2ccc(N3CCOCC3)cc2)cc1 (stereo not given)	inconclusive [activator, single point]	–
O=C1/C(=C/c2cccnc2)CC/C1=C\c1cccnc1	inactive	–
COc1cccc(-c2csc(N3CCN(C(=S)NCC(C)C)CC3)n2)c1	inconclusive [activator, single point]	–
CN(CC1COc2ccccc2O1)C(=O)CCNS(=O)(=O)c1ccc(F)c(Cl)c1 (stereo not given)	inconclusive [activator, partial curve]	–
Cc1ccc(C(=O)/C=C/c2ccc3c(c2)OCO3)o1	inactive	–
COc1ccc(OC)c(-c2csc(NC(=O)COC(=O)C3CCC3)n2)c1	inconclusive [activator, partial curve]	–
O=C1COc2ccc(-c3csc(NCCc4ccccc4)n3)cc2N1	inconclusive [activator, single point]	–
CCn1c(CC2C(=O)N(C)c3ccc(Br)cc32)nc2ccccc2c1=O (stereo not given)	inactive	–
Cc1ccc2c(c1)N(C(=O)N1CCC(C(=O)NCc3ccccc3F)CC1)CC(C)O2 (stereo not given)	inconclusive [activator, single point]	–
NC(=S)NN=C(c1ccccc1)c1ccccc1	inconclusive [activator, partial curve]	–
C=CCNC(=S)/N=c1/scc(C)n1C	inconclusive [activator, partial curve, poor fit]	–
Cc1ccccc1NCc1nc2ccccc2n1CCOc1ccccc1	inconclusive [activator, partial curve, poor fit]	–
O=C(Nc1nc(-c2ccccn2)cs1)c1ccc2c(c1)OCCO2	active: 12.6 µM	–
CN(C)c1ccc(C(=S)N2CCN(c3ccccc3)CC2)cc1	inconclusive [activator, partial curve, poor fit]	–
CCOc1ccc(OCCN2C(=O)NC3(CCCc4ccccc43)C2=O)cc1 (stereo not given)	inactive	–
O=[N+]([O-])c1cn(Cc2ccc(Cl)cc2)cn1	inconclusive [activator, single point]	–

SMILES	Potency	growth rescue
Cc1ccc(C(=O)NCC(c2cccnc2)N2CCc3ccccc3C2)cc1C (stereo not given)	inactive	–
CCOc1ccc(N(CC(=O)N/N=C/c2ccc(OC(C)C)cc2)S(C)(=O)=O)cc1	inconclusive [activator, full curve]	–
CCN(c1ccccc1)S(=O)(=O)c1ccc(NC(=O)c2nc(SC(C)C)ncc2Cl)cc1	inactive	–
COc1ccc(/C=C2\SC(=S)N(N3C(=O)CCC3=O)C2=O)cc1O	–	inconclusive: -15.9% [activator]
Cc1ccc(O)c(-c2n[nH]c3c2C(c2ccc(F)cc2)N(Cc2ccco2)C3=O)c1 (stereo not given)	inconclusive [activator, partial curve]	–
COc1ccc(C(C)(C)C)cc1NC(=O)COC(=O)c1ccc([N+](=O)[O-])o1	inactive	–
COc1cc(-c2ccc3c(=O)c4ccccc4n(C)c3c2)cc(OC)c1OC	inactive	–
CCOc1ccc(-c2cn(-c3ccccc3OC)c(=S)[nH]2)cc1	inconclusive [activator, single point]	–
COc1ccccc1-c1ccc(SCC(=O)NCc2ccc3c(c2)OCO3)nn1	inconclusive [activator, partial curve]	–
Oc1ccccc1C1SC(c2ccccc2O)SC(c2ccccc2O)S1 (stereo not given)	inconclusive [activator, partial curve, poor fit]	–
O=C(NCCc1ccc(Cl)cc1)C(=O)NCC(c1cccs1)S(=O)(=O)c1ccccc1 (stereo not given)	inactive	–
COc1ccc(CNC(=O)c2ccc(Cn3nc(C)c([N+](=O)[O-])c3C)o2)cc1	inconclusive [activator, partial curve]	–
O=C(c1n[nH]c2ccccc12)N1CCCCC1	inactive	–
O=C1CC(c2ccccc2)=NO1	inactive	–
COc1cccc(-c2nn(-c3ccc(C)cc3)cc2C(=O)N2CCc3cc(OC)c(OC)cc3C2)c1	inconclusive [activator, full curve]	–
COc1ccc(N2CC(NC(=O)Cc3cccs3)CC2=O)cc1OC (stereo not given)	inactive	–
CC(C)CNS(=O)(=O)c1ccc(CCC(=O)NCc2ccco2)cc1	inconclusive [activator, full curve, poor fit]	–
O=C(NCc1ccc(F)cc1)c1ccc(N2CCc3ccccc32)c([N+](=O)[O-])c1	inconclusive [activator, single point]	–
N#Cc1nc(-c2ccc(Cl)cc2)oc1NCCc1ccccn1	inactive	–
COc1cnc(-c2ccccn2)nc1Sc1ccccc1	inconclusive [activator, partial curve, poor fit]	–
CC1(Br)C2CCCC1C2S(=O)(=O)c1ccccc1 (stereo not given)	–	inconclusive: 35.2% [activator]
O=C(c1cc(-c2cccs2)nc2ccccc12)N1CCN(S(=O)(=O)c2cccc(F)c2)CC1	inactive	–
Fc1ccc2[nH]c3c(c2c1)CN(C(=S)NCc1ccccc1)CC3	inconclusive [activator, single point]	–
COC(=O)c1c(N(S(C)(=O)=O)S(C)(=O)=O)sc2c1CCN(c1ncc(C(F)(F)F)cc1Cl)C2	inactive	–

SMILES	Potency	growth rescue
COc1ccc(CNc2ccccc2)cc1Br	inactive	–
O=C(COc1ccccc1[N+](=O)[O-])NCC1(N2CCCCC2)CCCCC1	inactive	–
Cc1ccc2[nH]c(=O)c(C(c3nnnn3Cc3ccccc3)N3CCc4ccccc43)cc2c1 (stereo not given)	inactive	–
CC(C)(C)C(=O)Nc1nnc(SCc2cccc(F)c2)s1	inconclusive [activator, full curve]	–
Cc1ccc(-n2nc3c(N4CCC(C(=O)NCCC(C)C)CC4)nnc(C)c3c2C)cc1	inactive	–
Cc1ccc(C(=O)C2CCN(C(=S)NCCCOC(C)C)CC2)cc1	inconclusive [activator, single point]	–
O=C(CN1CCN(c2ccc(Cl)cc2)CC1)Nc1ccc(F)c(F)c1	inconclusive [activator, partial curve, poor fit]	–
Cn1ncnc1SCc1cn2cccnc2n1	inconclusive [activator, single point]	–
Nc1ccccc1-c1n[nH]c(=S)s1	inconclusive [activator, single point]	–
Cc1ccccc1C(=O)N1CCC(C(=O)Nc2nc3ccc(F)cc3s2)CC1	inconclusive [activator, partial curve, poor fit]	–
COC(=O)c1ccc(NC(=O)CN(c2cccc(C(F)(F)F)c2)S(C)(=O)=O)cc1	inconclusive [activator, partial curve, poor fit]	–
N#C/C(=C/c1ccc(F)cc1)C(N)=S	inactive	–
CCOc1ccc(OCCCC(=O)NCCc2ccc(OC)cc2)cc1	inactive	–
CCCn1nnnc1NC(=O)COc1ccc(Cl)cc1C	inconclusive [activator, single point]	–
CCN(CC)S(=O)(=O)c1ccc(OCC(=O)NC(=O)Cc2ccccc2)c([N+](=O)[O-])c1	inconclusive [activator, partial curve, poor fit]	–
CC(=O)c1cc(-c2ccccc2)n(CCC(=O)NC2CCCCCC2)c1C	inconclusive [activator, single point]	–
Cc1ccccc1C(=O)NCC(=O)OCCOc1ccc(C(C)C)c(C)c1	inconclusive [activator, partial curve, poor fit]	–
Cc1cccc(Nc2nc(-c3ccc(F)c(C)c3)cs2)n1	inconclusive [activator, single point]	–
C=CCNC(=S)N/N=C/c1ccc(N(CC)Cc2ccccc2)cc1	inconclusive [activator, full curve, poor fit]	–
Cc1cc(Cl)ccc1NNC(N)=S	inconclusive [activator, partial curve, poor fit]	–
CCOc1ccc(CNC(=S)NCc2ccc(OCC)cc2)cc1	inconclusive [activator, partial curve, poor fit]	–
CCOC(=O)c1c(C)n(-c2ccccc2)c2ccc(OC(=O)c3cc(OC)cc(OC)c3)cc12	inactive	–
